{
  "source": "PubChem BioAssay AID488969",
  "about": "(Vanderbilt High Throughput Screening Facility, 2010)",
  "note": "Over roughly 110,000 compounds, “z-score” has its median near -0.1; the highest 2% begin near 2. The list shows a part of the results. Calls of active or inactive are those of the source.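 Rule for the calls: active = z-score in the third read window above 3 or below -3; inactive = the rest.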",
  "data": [
    {"target": "Metabotropic glutamate receptor 8 (Rattus norvegicus) (UniProt P70579)", "sequence (P70579 whole entry, looked up)": "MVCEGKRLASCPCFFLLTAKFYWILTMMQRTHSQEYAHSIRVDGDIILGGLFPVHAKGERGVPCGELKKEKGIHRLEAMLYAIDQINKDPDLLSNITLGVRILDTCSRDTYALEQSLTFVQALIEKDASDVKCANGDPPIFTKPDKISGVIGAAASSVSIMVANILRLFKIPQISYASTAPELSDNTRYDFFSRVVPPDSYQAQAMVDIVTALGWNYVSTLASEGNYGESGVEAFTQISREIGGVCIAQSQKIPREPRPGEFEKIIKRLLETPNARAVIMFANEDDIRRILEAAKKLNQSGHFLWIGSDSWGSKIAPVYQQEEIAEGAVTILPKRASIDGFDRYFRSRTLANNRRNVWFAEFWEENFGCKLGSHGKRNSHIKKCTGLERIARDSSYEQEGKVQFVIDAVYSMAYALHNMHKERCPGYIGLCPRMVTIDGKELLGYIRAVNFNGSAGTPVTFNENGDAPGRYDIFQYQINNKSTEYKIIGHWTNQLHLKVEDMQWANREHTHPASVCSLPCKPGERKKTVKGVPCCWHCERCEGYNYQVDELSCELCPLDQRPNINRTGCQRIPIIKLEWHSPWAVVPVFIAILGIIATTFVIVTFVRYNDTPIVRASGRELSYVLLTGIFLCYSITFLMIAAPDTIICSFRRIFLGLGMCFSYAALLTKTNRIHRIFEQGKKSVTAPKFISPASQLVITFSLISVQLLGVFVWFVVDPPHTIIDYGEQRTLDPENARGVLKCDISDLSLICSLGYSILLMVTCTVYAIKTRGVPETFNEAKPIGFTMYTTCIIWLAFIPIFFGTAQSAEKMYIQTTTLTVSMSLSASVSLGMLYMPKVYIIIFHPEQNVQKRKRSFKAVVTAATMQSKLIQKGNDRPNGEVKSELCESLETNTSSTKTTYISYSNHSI", "test": "rat mGluR8 modulators via GIRK flux, primary screen, cell-based, thallium flux, HTS (AID 488969)", "details": "HEK293 rat mGluR8, GIRK (G protein-gated inwardly rectifying potassium channel) thallium flux, FluoZin2; at 10 µM; stronger effect = higher value; submaximal glutamate (EC20) added with thallium", "values": [
      {"smiles": "Cc1noc(C)c1C(=O)Nc1cccnc1", "z-score": -0.49},
      {"smiles": "Nc1cc(N)nc(SCc2cccnc2)n1", "z-score": -0.0787},
      {"smiles": "CCOC(=O)C1=C(Cn2ccc(C(F)(F)F)n2)NC(=O)NC1c1ccc2c(c1)OCO2", "note": "(configuration not stated)", "z-score": -1.04},
      {"smiles": "CC(C)CCNC(=S)Nc1ccccn1", "z-score": -0.14},
      {"smiles": "CCCn1c(O)c(N=NC(=O)c2ccco2)c2ccccc21", "z-score": "active: 3.17"},
      {"smiles": "CC(=O)NCCOc1ccc2oc3ccccc3c2c1", "z-score": -0.506},
      {"smiles": "CCOC(=O)c1c(NC(=O)COC(=O)CNC(=O)c2ccco2)sc(C(C)=O)c1C", "z-score": 1.56},
      {"smiles": "O=C(CNC(=S)N(CCCN1CCOCC1)Cc1cccs1)NC1CCCCCCC1", "z-score": -0.687},
      {"smiles": "CCC(=O)OCc1cc2cccc(C)c2[nH]c1=O", "z-score": 1.17},
      {"smiles": "CCOc1ccc(/C=N/O)cc1", "z-score": -0.0589},
      {"smiles": "CC1(C)CC(=O)c2sc(NS(C)(=O)=O)nc2C1", "z-score": 0.105},
      {"smiles": "Cc1cccc(-c2nc3ccccc3c(=O)n2NC(=S)N(C)C)c1", "z-score": -0.0514},
      {"smiles": "O=C(OCC(=O)N1CCc2ccccc21)c1ccc(Cl)nc1", "z-score": -0.126},
      {"smiles": "COc1ccc(N2CCN(C(CNS(=O)(=O)c3ccc4c(c3)OCCO4)c3ccco3)CC2)cc1", "note": "(configuration not stated)", "z-score": -0.267},
      {"smiles": "CN(C)C(=O)CSc1nnc(CCN)o1", "z-score": 0.699},
      {"smiles": "CCCCOc1ccc(C)cc1CN(CCO)CCO", "z-score": 0.648},
      {"smiles": "COc1ccc(Nc2nc(N)nc(CN3CCN(c4ccccn4)CC3)n2)cc1", "z-score": 0.264},
      {"smiles": "Cc1cc(C)n2nc(SCc3nnc(SCc4ccccc4Cl)s3)nc2n1", "z-score": 0.0432},
      {"smiles": "O=c1c(-c2ccco2)[n+]([O-])c2ccccc2n1OCc1ccccc1", "z-score": -1.43},
      {"smiles": "COc1ccc(-c2nnc(NC(=O)CSc3ccc(C)cc3)s2)cc1OC", "z-score": -0.22},
      {"smiles": "O=[N+]([O-])c1cc(Cl)ccc1NCCNS(=O)(=O)c1ccccc1", "z-score": -0.267},
      {"smiles": "O=CN(/C=C1\\Sc2ccccc2C1=O)Cc1ccccc1", "z-score": -0.358},
      {"smiles": "Cn1c2c(c(=O)n(C)c1=O)CN(CCCN1CCOCC1)CN2", "z-score": 0.177},
      {"smiles": "NC(=O)c1nc(N2CCOCC2)nc(N2CCOCC2)n1", "z-score": 0.152},
      {"smiles": "O=C(NCC1CCCO1)C(c1cccs1)N(Cc1ccccc1Cl)C(=O)c1ccc(-c2ccccc2)[nH]1", "note": "(configuration not stated)", "z-score": 2.14},
      {"smiles": "Cc1cc(C(F)(F)F)n(-c2nc(C(=O)N/N=C/c3ccc(F)cc3)cs2)n1", "z-score": -0.0708},
      {"smiles": "COc1ccc(C2C(C(=O)NCc3ccccn3)c3ccccc3C(=O)N2C)cc1OC", "note": "(configuration not stated)", "z-score": 0.753},
      {"smiles": "CC1=C(C(=O)N2CCCCC2)C2(CCC(C)CC2)OC1=O", "note": "(configuration not stated)", "z-score": 0.0979},
      {"smiles": "CCc1nc(C)cn1S(=O)(=O)c1cc(Cl)c(OC)cc1Cl", "z-score": 2.99},
      {"smiles": "CCCn1c(NCc2ccccc2NS(=O)(=O)c2ccc(C)cc2)nc2ccccc21", "z-score": -0.784},
      {"smiles": "O=S(=O)(N1CCOCC1)N1CCN(c2ccc(F)cc2)CC1", "z-score": 0.324},
      {"smiles": "COc1ccc(/C=N/NC(=O)c2ccc(Br)cc2)cc1Cn1cc(Cl)cn1", "z-score": -0.434},
      {"smiles": "CC(C)CCN(C)C1CCN(C(=O)Nc2c(F)cccc2F)CC1", "z-score": -0.117},
      {"smiles": "CC1CC(C)CN(CCCNC(=O)COc2cc(=O)n(C)c3ccccc23)C1", "note": "(configuration not stated)", "z-score": -0.093},
      {"smiles": "COc1cc(OC)c(OC)cc1CN1CCN(c2ccccc2OC)CC1", "z-score": 0.548},
      {"smiles": "COc1ccc2nc(N3CCCC(O)C3)c(C#N)cc2c1", "note": "(configuration not stated)", "z-score": -0.141},
      {"smiles": "CC(C)c1ccc(NC(=O)COc2ccc(S(=O)(=O)N3CCOCC3)cc2)cc1", "z-score": 0.231},
      {"smiles": "C/C(=N\\NC(=O)CNC(=O)C(c1ccccc1)c1ccccc1)c1ccccc1", "z-score": -0.212},
      {"smiles": "O=C(NC1CCCc2ccccc21)C1CCN(S(=O)(=O)c2ccccc2F)CC1", "note": "(configuration not stated)", "z-score": -0.424},
      {"smiles": "CN(C)S(=O)(=O)Oc1ccsc1C(=O)Nc1ccccc1Cl", "z-score": 0.0382},
      {"smiles": "O=C(CCN1C(=O)c2ccccc2C1=O)Nc1ccc(-c2cn3ccsc3n2)cc1", "z-score": -0.468},
      {"smiles": "COc1ccccc1/C=N/NC(=O)C(=O)Nc1ccccc1OC(F)(F)C(F)F", "z-score": -0.165},
      {"smiles": "CC(C)CNC(=O)c1ccc(Cl)c(N)c1", "z-score": -0.294},
      {"smiles": "COc1ccc(N=C2C(=Nc3ccc(OC)cc3)N(c3ccc(OC)cc3)C(=S)N2C)cc1", "z-score": -0.0804},
      {"smiles": "CCOC(=O)NC(CC(=O)O)c1ccc(OC)c(OC)c1", "note": "(configuration not stated)", "z-score": -0.173},
      {"smiles": "COc1ccccc1N1CCN(S(=O)(=O)c2cn(C)c(=O)n(C)c2=O)CC1", "z-score": -0.107},
      {"smiles": "CCOc1ccccc1C1C(C(=O)Nc2ccccc2OC)=C(C)Nc2nc(CCCO)nn21", "note": "(configuration not stated)", "z-score": -0.324},
      {"smiles": "COc1ccc(CNC(=O)c2c(F)c(F)c(F)c(F)c2F)cc1", "z-score": 0.709},
      {"smiles": "O=C(O)CCc1nc2ccccc2n(CCc2ccccc2)c1=O", "z-score": 0.396},
      {"smiles": "CC(=O)NC(Cc1c[nH]c2ccccc12)C(=O)OCC(=O)Nc1ccc2c(c1)OCO2", "note": "(configuration not stated)", "z-score": -0.124},
      {"smiles": "COc1ccccc1C(c1nnnn1CCc1ccccc1)N1CCN(c2ccccc2)CC1", "note": "(configuration not stated)", "z-score": -0.00308},
      {"smiles": "C=CCOC(=O)CC(NC(=O)c1ccccc1)c1ccccc1", "note": "(configuration not stated)", "z-score": 0.0338},
      {"smiles": "Cn1c(SCC(=O)N2CCOCC2)nnc1-c1cnccn1", "z-score": -0.285},
      {"smiles": "Cc1cc(C)nc(N2CCCC(C(=O)NCCc3ccccc3F)C2)n1", "note": "(configuration not stated)", "z-score": -0.306},
      {"smiles": "CCCCOc1ccc(NC(=O)C2CC=CCC2C(=O)O)cc1", "note": "(configuration not stated)", "z-score": -0.0643},
      {"smiles": "Cc1ccc2cc(C)c(NCCO)nc2c1", "z-score": -0.569},
      {"smiles": "COc1ccc(-c2cc(-c3ccc(Br)cc3)nc3ncnn23)cc1OC", "z-score": 0.366},
      {"smiles": "CCC(C)NC(=O)C1(C)CCC(=O)N1CCc1ccc(OC)c(OC)c1", "note": "(configuration not stated)", "z-score": 0.237},
      {"smiles": "COc1ccccc1NC(=O)C1=C(C)Nc2ncnn2C1c1ccc(C)o1", "note": "(configuration not stated)", "z-score": 0.084},
      {"smiles": "Cc1ccc(CNC(=O)C2CCCN(C(=O)N(C)C)C2)cc1", "note": "(configuration not stated)", "z-score": -0.391},
      {"smiles": "Cc1ccc(F)cc1NC(=O)Cc1ncc(C(F)(F)F)cc1Cl", "z-score": -0.126},
      {"smiles": "CCOC(=O)c1[nH]c(C)c(/C(O)=C2\\C(=O)C(=O)N(CCCN(CC)CC)C2c2cccnc2)c1C", "note": "(configuration not stated)", "z-score": -0.0267},
      {"smiles": "C=CCNC(=S)Nc1ccc(Br)cc1F", "z-score": -0.377},
      {"smiles": "CCn1c(SC(C)C(=O)O)nnc1-c1cccnc1", "note": "(configuration not stated)", "z-score": 0.16},
      {"smiles": "Cc1nnc(SCC(=O)N2CCC(Cc3ccccc3)CC2)n(N)c1=O", "z-score": 0.252},
      {"smiles": "O=C(C1CCCO1)N1CCN(C(=S)Nc2ccccc2Cl)CC1", "note": "(configuration not stated)", "z-score": -0.132},
      {"smiles": "CC(C)N1CCC2(CC1)C(C#N)=C(N)NC(S)=C2C#N", "z-score": -0.314},
      {"smiles": "O=C(Nc1ccc2c(c1)OCO2)Nc1cnccn1", "z-score": -0.0462},
      {"smiles": "COc1cc2c(cc1OC)C(C)N(C(=O)Cn1ncc3c1-c1ccccc1OC3)CC2", "note": "(configuration not stated)", "z-score": 0.448},
      {"smiles": "Cc1cccn2c(=O)c3cc(C#N)c(=O)n(CC4CCCO4)c3nc12", "note": "(configuration not stated)", "z-score": 0.00847},
      {"smiles": "CCS(=O)(=O)N1CCCC(c2nc(-c3cccc(OC)c3)no2)C1", "note": "(configuration not stated)", "z-score": -0.0718},
      {"smiles": "COc1ccccc1C(=O)Oc1ccc2c(c1)O/C(=C\\c1ccncc1)C2=O", "z-score": -0.0226}
    ]}
  ]
}
